Test results from patent US20110064751A1 (Hoffmann-La Roche, published 2011).
Like-named read-outs stand apart in the source and are kept apart here.

B1: MCSP-targeted MHLG1 KV9 Fab-IL2-Fab immunoconjugate (other)
chain: EVQLVESGGGLVKPGGSLRLSCAASGFTFSNYWMNWVRQAPGKGLEWVAEIRLKSNNFGRYYAASVKGRFTISRDDSKNTLYLQMNSLKTEDTAVYYCTTYGNYVGHYFDHWGQGTTVTVSSASTKGPSVFPLAPSSKSTSGGTAALGCLVKDYFPEPVTVSWNSGALTSGVHTFPAVLQSSGLYSLSSVVTVPSSSLGTQTYICNVNHKPSNTKVDKKVEPKSCDSGGGGSGGGGSGGGG[sequence of about 150 residues omitted]SGGGGSGGGGSGGGGEVQLVESGGGLVKPGGSLRLSCAASGFTFSNYWMNWVRQAPGKGLEWVAEIRLKSNNFGRYYAASVKGRFTISRDDSKNTLYLQMNSLKTEDTAVYYCTTYGNYVGHYFDHWGQGTTVTVSSASTKGPSVFPLAPSSKSTSGGTAALGCLVKDYFPEPVTVSWNSGALTSGVHTFPAVLQSSGLYSLSSVVTVPSSSLGTQTYICNVNHKPSNTKVDKKVEPKSCD
light: DIQLTQSPSFLSASVGDRVTITCKASQNVDTNVAWYQQKPGQAPRPLIYSASYRYTGVPSRFSGSGSGTEFTLTISSLQPEDFATYYCQQYNSYPLTFGGGTKVEIKRTVAAPSVFIFPPSDEQLKSGTASVVCLLNNFYPREAKVQWKVDNALQSGNSQESVTEQDSKDSTYSLSSTLTLSKADYEKHKVYACEVTHQGLSSPVTKSFNRGEC
notes: Two Fabs and one IL-2; also called MHLG1 Fab-IL2-Fab
B2: L19 Fab-IL2-Fab immunoconjugate (other)
chain: EVQLLESGGGLVQPGGSLRLSCAASGFTFSSFSMSWVRQAPGKGLEWVSSISGSSGTTYYADSVKGRFTISRDNSKNTLYLQMNSLRAEDTAVYYCAKPFPYFDYWGQGTLVTVSSASTKGPSVFPLAPSSKSTSGGTAALGCLVKDYFPEPVTVSWNSGALTSGVHTFPAVLQSSGLYSLSSVVTVPSSSLGTQTYICNVNHKPSNTKVDKKVEPKSCDSGGGGSGGGGSGGGG[sequence of about 150 residues omitted]SGGGGSGGGGSGGGGEVQLLESGGGLVQPGGSLRLSCAASGFTFSSFSMSWVRQAPGKGLEWVSSISGSSGTTYYADSVKGRFTISRDNSKNTLYLQMNSLRAEDTAVYYCAKPFPYFDYWGQGTLVTVSSASTKGPSVFPLAPSSKSTSGGTAALGCLVKDYFPEPVTVSWNSGALTSGVHTFPAVLQSSGLYSLSSVVTVPSSSLGTQTYICNVNHKPSNTKVDKKVEPKSCD
light: EIVLTQSPGTLSLSPGERATLSCRASQSVSSSYLAWYQQKPGQAPRLLIYYASSRATGIPDRFSGSGSGTDFTLTISRLEPEDFAVYYCQQTGRIPPTFGQGTKVEIKRTVAAPSVFIFPPSDEQLKSGTASVVCLLNNFYPREAKVQWKVDNALQSGNSQESVTEQDSKDSTYSLSSTLTLSKADYEKHKVYACEVTHQGLSSPVTKSFNRGEC
notes: Immunoconjugate: two Fabs and one IL-2; also called Fab-IL2-Fab fusion construct; Fab-L19
B3: L19 diabody-IL2 fusion protein, 8 amino acid linker (other)
scFv: EVQLLESGGGLVQPGGSLRLSCAASGFTFSSFSMSWVRQAPGKGLEWVSSISGSSGTTYYADSVKGRFTISRDNSKNTLYLQMNSLRAEDTAVYYCAKPFPYFDYWGQGTLVTVSSSGGSGGASEIVLTQSPGTLSLSPGERATLSCRASQSVSSSYLAWYQQKPGQAPRLLIYYASSRATGIPDRFSGSGSGTDFTLTISRLEPEDFAVYYCQQTGRIPPTFGQGTKVEISVLSSSSGSSSSGSSSSG[sequence of about 150 residues omitted]
B4: heterodimeric human IL-2 receptor beta/gamma Fc fusion (knob-into-hole construct) (Fc fusion)
chain 1: AVNGTSQFTCFYNSRANISCVWSQDGALQDTSCQVHAWPDRRRWNQTCELLPVSQASWACNLILGAPDSQKLTTVDIVTLRVLCREGVRWRVMAIQDFKPFENLRLMAPISLQVVHVETHRCNISWEISQASHYFERHLEFEARTLSPGHTWEEAPLLTLKQKQEWICLETLTPDTQYEFQVRVKPLQGEFTTWSPWSQPLAFRTKPAALGKDTGAQ[sequence of human IgG1 Fc with changes omitted]
chain 2: LNTTILTPNGNEDTTADFFLTTMPTDSLSVSTLPLPEVQCFVFNVEYMNCTWNSSSEPQPTNLTLHYWYKNSDNDKVQKCSHYLFSEEITSGCQLQKKEIHLYQTFVVQLQDPREPRRQATQMLKLQNLVIPWAPENLTLHKLSESQLELNWNNRFLNHCLEHLVQYRTDWDHSWTEQSVDYRHKFSLPSVDGQKRYTFRVRSRFNPLCGSAQHWSEWSHPIHWGSNTSKENPFLFALEAGAQ[sequence of human IgG1 Fc with changes omitted]
notes: also called IL-2R b/g; hu IL-2R bg
B5: F16-diabody-IL2 protein (other)
scFv: EVQLLESGGGLVQPGGSLRLSCAASGFTFSRYGMSWVRQAPGKGLEWVSAISGSGGSTYYADSVKGRFTISRDNSKNTLYLQMNSLRAEDTAVYYCAKAHNAFDYWGQGTLVTVSSASGGSSELTQDPAVSVALGQTVRITCQGDSLRSYYASWYQQKPGQAPVLVIYGKNNRPSGIPDRFSGSSSGNTASLTITGAQAEDEADYYCNSSVYTMPPVVFGGGTKLTVLGSSSSGSSSSGSSSSG[sequence of about 150 residues omitted]
notes: Bivalent for the antigen and for IL-2; also called F16 dia IL2; the diabody
B6: F16 Fab-IL2-Fab immunoconjugate (other)
chain: EVQLLESGGGLVQPGGSLRLSCAASGFTFSRYGMSWVRQAPGKGLEWVSAISGSGGSTYYADSVKGRFTISRDNSKNTLYLQMNSLRAEDTAVYYCAKAHNAFDYWGQGTLVTVSSASTKGPSVFPLAPSSKSTSGGTAALGCLVKDYFPEPVTVSWNSGALTSGVHTFPAVLQSSGLYSLSSVVTVPSSSLGTQTYICNVNHKPSNTKVDKKVEPKSCDSSSSGSSSSGSSSSG[sequence of about 150 residues omitted]SGGGGSGGGGSGGGGEVQLLESGGGLVQPGGSLRLSCAASGFTFSRYGMSWVRQAPGKGLEWVSAISGSGGSTYYADSVKGRFTISRDNSKNTLYLQMNSLRAEDTAVYYCAKAHNAFDYWGQGTLVTVSSASTKGPSVFPLAPSSKSTSGGTAALGCLVKDYFPEPVTVSWNSGALTSGVHTFPAVLQSSGLYSLSSVVTVPSSSLGTQTYICNVNHKPSNTKVDKKVEPKSCD
light: SSELTQDPAVSVALGQTVRITCQGDSLRSYYASWYQQKPGQAPVLVIYGKNNRPSGIPDRFSGSSSGNTASLTITGAQAEDEADYYCNSSVYTMPPVVFGGGTKLTVLGQPKAAPSVTLFPPSSEELQANKATLVCLISDFYPGAVTVAWKADSSPVKAGVETTTPSKQSNNKYAASSYLSLTPEQWKSHRSYSCQVTHEGSTVEKTVAPTECS
notes: also called Fab-IL2-Fab (F16)
B7: F16 scFv-IL2-scFv immunoconjugate (other)
chain: EVQLLESGGGLVQPGGSLRLSCAASGFTFSRYGMSWVRQAPGKGLEWVSAISGSGGSTYYADSVKGRFTISRDNSKNTLYLQMNSLRAEDTAVYYCAKAHNAFDYWGQGTLVTVSRGGGGSGGGGSGGGGSSELTQDPAVSVALGQTVRITCQGDSLRSYYASWYQQKPGQAPVLVIYGKNNRPSGIPDRFSGSSSGNTASLTITGAQAEDEADYYCNSSVYTMPPVVFGGGTKLTVLGSSSSGSSSSGSSSSG[sequence of about 150 residues omitted]SGGGGSGGGGSGGGGSSELTQDPAVSVALGQTVRITCQGDSLRSYYASWYQQKPGQAPVLVIYGKNNRPSGIPDRFSGSSSGNTASLTITGAQAEDEADYYCNSSVYTMPPVVFGGGTKLTVLGSGGGSGGGSGGGSGSEVQLLESGGGLVQPGGSLRLSCAASGFTFSRYGMSWVRQAPGKGLEWVSAISGSGGSTYYADSVKGRFTISRDNSKNTLYLQMNSLRAEDTAVYYCAKAHNAFDYWGQGTLVTVS
notes: also called scFv-IL2-scFv (F16, protein)

Key:
[1] = molecular target: T1, human Melanoma Chondroitin Sulfate Proteoglycan (MCSP) on Colo38 melanoma cells (human, UniProt Q6UVK1 30-2322); assay: flow cytometry on MCSP-expressing Colo38 melanoma cells, detection with FITC goat anti-human F(ab')2
T1 construct: whole, on cells
Text: Briefly, cells were harvested, counted and checked for viability.

[2] = molecular target: T2, Extra Domain B of fibronectin (EDB) (UniProt P02751 1266-1356); assay: BIACORE SPR, EDB immobilized on the chip, analyte at 1.56, 3.125 and 6.25 nM
T2 construct: domain: Extra Domain B; construct not described; also called fibronectin Ectodomain-B

[3] = molecular target: T2, Extra Domain B of fibronectin (EDB); assay: as above; remark: listed apart in the source
[4] = molecular target: T3, commercially available IL-2 (Proleukin) (human, UniProt P60568); assay: BIACORE SPR summary table, column IL-2 Receptor
T3 construct: also called unconjugated IL-2

[5] = molecular target: T3, commercially available IL-2 (Proleukin); assay: BIACORE SPR, immobilized IL-2 receptor (beta Hole-gamma Knob), IL-2 as analyte
[6] = molecular target: B4; assay: BIACORE SPR summary table, column IL-2 Receptor
[7] = molecular target: B4; assay: BIACORE SPR, immobilized IL-2R, construct as analyte; apparent KD
[8] = molecular target: B4; assay: as above; remark: listed apart in the source
[9] = molecular target: T4, A1 domain of tenascin (TNC-A1), immobilized domain of Example 1 (UniProt P24821 1072-1162, limits assumed); assay: BIACORE SPR summary table, column Tenascin C domain A1
T4 construct: domain: A1; also called TNC-A1 domain
T4 sequence (looked up): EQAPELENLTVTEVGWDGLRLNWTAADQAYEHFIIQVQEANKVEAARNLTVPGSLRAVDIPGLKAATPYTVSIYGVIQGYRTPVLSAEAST

[10] = molecular target: B4; assay: BIACORE SPR, immobilized IL-2R, construct as analyte; apparent KD; remark: listed apart in the source
[11] = molecular target: T4, A1 domain of tenascin (TNC-A1), …; assay: BIACORE SPR, immobilized TNC domain A1, construct as analyte; apparent KD

T2 sequence (P02751 1266-1356 limits assumed): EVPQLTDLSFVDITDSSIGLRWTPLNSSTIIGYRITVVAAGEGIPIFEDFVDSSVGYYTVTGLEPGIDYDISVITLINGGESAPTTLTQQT
T1 sequence (Q6UVK1 30-2322): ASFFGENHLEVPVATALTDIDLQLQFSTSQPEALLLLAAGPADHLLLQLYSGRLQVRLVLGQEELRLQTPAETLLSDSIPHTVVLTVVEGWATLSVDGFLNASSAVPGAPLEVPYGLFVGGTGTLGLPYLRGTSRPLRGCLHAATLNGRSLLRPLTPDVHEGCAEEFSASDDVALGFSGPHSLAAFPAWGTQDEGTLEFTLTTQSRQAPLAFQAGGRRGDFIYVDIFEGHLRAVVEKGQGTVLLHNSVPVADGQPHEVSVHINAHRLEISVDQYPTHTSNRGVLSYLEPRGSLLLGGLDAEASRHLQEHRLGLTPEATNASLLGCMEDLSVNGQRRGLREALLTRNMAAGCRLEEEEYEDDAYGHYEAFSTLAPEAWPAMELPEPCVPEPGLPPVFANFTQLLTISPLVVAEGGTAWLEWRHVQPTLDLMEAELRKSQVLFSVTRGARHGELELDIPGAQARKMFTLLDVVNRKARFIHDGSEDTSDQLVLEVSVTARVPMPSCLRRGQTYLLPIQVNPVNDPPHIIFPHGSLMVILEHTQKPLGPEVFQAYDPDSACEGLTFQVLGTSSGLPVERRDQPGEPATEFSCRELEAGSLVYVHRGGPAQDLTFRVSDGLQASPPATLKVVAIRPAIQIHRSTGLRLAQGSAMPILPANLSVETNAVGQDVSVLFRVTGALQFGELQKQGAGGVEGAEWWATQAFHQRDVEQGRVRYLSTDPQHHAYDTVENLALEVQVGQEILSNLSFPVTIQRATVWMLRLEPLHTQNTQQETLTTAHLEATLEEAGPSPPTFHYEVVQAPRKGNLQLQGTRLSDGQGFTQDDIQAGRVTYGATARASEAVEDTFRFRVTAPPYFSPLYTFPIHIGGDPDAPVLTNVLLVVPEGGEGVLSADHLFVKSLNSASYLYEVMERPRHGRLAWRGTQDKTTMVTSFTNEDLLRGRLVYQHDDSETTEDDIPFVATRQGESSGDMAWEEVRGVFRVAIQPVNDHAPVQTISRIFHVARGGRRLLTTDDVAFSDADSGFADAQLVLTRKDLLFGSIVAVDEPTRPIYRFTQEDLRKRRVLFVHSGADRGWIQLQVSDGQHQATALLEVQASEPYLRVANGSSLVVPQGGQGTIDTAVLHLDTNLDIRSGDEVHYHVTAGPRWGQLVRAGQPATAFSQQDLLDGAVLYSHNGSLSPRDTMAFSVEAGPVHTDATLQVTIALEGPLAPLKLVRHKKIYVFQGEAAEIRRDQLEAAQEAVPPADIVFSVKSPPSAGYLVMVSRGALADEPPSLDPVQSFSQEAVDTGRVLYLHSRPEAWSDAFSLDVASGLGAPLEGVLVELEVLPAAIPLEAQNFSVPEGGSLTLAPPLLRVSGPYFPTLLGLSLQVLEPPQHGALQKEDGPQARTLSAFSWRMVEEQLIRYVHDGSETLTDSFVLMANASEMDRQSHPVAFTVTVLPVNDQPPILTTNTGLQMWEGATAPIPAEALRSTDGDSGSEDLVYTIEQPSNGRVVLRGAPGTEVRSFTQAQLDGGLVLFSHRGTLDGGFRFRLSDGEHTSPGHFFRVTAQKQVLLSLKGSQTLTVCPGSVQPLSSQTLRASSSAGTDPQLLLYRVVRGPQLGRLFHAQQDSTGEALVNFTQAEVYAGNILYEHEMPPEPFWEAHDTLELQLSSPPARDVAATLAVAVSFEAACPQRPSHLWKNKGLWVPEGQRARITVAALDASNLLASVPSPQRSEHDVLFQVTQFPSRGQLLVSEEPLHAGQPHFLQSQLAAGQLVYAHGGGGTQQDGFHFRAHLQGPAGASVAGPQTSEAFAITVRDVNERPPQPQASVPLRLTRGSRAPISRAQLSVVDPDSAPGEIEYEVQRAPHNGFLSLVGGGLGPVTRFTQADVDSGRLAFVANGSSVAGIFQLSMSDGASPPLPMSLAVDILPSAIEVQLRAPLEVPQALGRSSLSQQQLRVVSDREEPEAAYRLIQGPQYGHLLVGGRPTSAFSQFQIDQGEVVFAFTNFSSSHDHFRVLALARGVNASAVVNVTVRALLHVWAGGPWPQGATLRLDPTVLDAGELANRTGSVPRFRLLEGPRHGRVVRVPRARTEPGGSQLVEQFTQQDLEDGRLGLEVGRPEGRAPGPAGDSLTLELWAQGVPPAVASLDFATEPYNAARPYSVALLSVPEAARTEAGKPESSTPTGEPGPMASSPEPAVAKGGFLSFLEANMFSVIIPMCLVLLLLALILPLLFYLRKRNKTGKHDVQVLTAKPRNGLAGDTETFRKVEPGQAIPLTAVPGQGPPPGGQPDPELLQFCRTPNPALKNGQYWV

For B1, the “EC50 (read off the curve)” value [1] was roughly 2 nM.

B2 gave a Kd [2] of 0.312 nM, a koff [2] of 0.000904 s⁻¹ and a kon [2] of 2.89e+06 M⁻¹ s⁻¹.

B3 showed a Kd [3] of 0.267 nM, a koff [3] of 0.000688 s⁻¹ and a kon [3] of 2.58e+06 M⁻¹ s⁻¹.

Work on B4 yielded a Kd [4] of 0.495 nM, a Kd [5] of 0.495 nM and a koff [5] of 0.000369 s⁻¹. It also gave a kon [5] of 745000 M⁻¹ s⁻¹.

For B5, the Kd [6] was 0.81 nM and the Kd [7] was 0.81 nM.

B6 gave a Kd [6] of 7.4 nM and a Kd [8] of 7.4 nM.

Binder B7 has a Kd [6] of 2.5 nM, a Kd [9] of 11.5 nM and a Kd [10] of 2.5 nM. For the same binder, the Kd [11] was 11.5 nM.
